According to the supplement of paper PMC11417369:
± gives the standard deviation of the averaged measurements. The list shows a part of the results.

Each sequence was assayed on PfAP2-I AP2 domain 3 (GST-tagged) (assay: gcPBM binding intensity (ln(normalized median fluorescence intensity)); higher = stronger DNA binding).
Method in brief: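 After 1 h on an Agilent 4 × 180k array of primer-extended double-stranded 36-bp intergenic genomic probes and negative controls, bound GST-tagged P. falciparum DNA-binding domains were detected with Alexa488 anti-GST antibody and scanned at 488 nm. The domains had been expressed in E. coli, and binding took place in 1× PBS with 1% milk, 0.2 mg/ml BSA, 0.5% salmon testes DNA and 0.03% Triton X-100. Binding intensity is the highest Masliner-normalised natural-log median intensity across replicate spots of either probe orientation.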

Sequence	gcPBM binding intensity (ln)
AAAAAAAAAAATTAAAGTACTAATTAAAATTATATG [XGTACX_site5289]	7.33 ± 0.35
TTTTAATTAAATAAATGTACTCATTCTATTATTTAT [XGTACX_site3032]	7.62 ± 0.26
ATAAATTTTTTATGAACACACAAATACCCACGCTCA [CACACA_site2659]	8.21 ± 0.4
AAATTCAATTTGCGCTGTACATGAAGATATAAATTT [XGTACX_site4844]	7.96 ± 0.5
ATACCTGTTGTGTTACGTACATAATTTTAATGTTTG [XGTACX_site8181]	8.28 ± 0.45
TATATATATAAATACACACACACACCCCAAAGCGTA [CACACA_site4211]	8.63 ± 0.57
TATTTTTTAAAAAATTATAAATAAAATTATATTACG [CACACA_negctrl_site324]	7.46 ± 0.3
AAAAAAAACACGCGCACACACACACCCACAGACACA [CACACA_site5253]	8.38 ± 0.092
ACAGTATATTAAAAAATACACACGTATTATATCTAC [CACACA_site2640]	7.59 ± 0.5
TATAATATATTCACTCGTACATATTTAATAATATCT [XGTACX_site6209]	7.78 ± 0.47
GTTTACTAATATTGCACACGAATATGAAAAAGAGAA [CACACA_site2897]	9.98 ± 0.48
TTTCTAATTTATATCACACACATATATTTATAGTAA [CACACA_site6280]	7.67 ± 0.49
GTGTTAACTATTATGAGTACTTATGTATTAATTCAT [XGTACX_site7767]	8 ± 0.26
TTGCTTATTAAATGGGGTACATTATATATATATATA [XGTACX_site2515]	9.04 ± 0.29
TAAATTTGTGGGATTTCACACAGGTTTATTTACATT [CACACA_site5455]	7.41 ± 0.63
TTCAGAGAATAAAAATGTACATATAATATTTTAAAA [XGTACX_site577]	7.77 ± 0.45
ATGTAGGTTAATTATTGTACGTAGGGGGTGTATATT [XGTACX_site3973]	9.68 ± 0.2
CTCTTGTCATTTTGCACACACACATGTATAGGTTAT [CACACA_site3057]	10.03 ± 0.085
TAATTTTATATTAAAAGTACATAATAAAAACTATAA [XGTACX_site8779]	7.79 ± 0.22
AAGAAATATATATATATATATATATATATATATGTA [TGCATGCA_negctrl_site442]	8.43 ± 0.23
TACATACACGGACACACACACATATATATATATATA [CACACA_site5883]	9.36 ± 0.33
CACTAATATATATACAGTACATAATAAAGTATATAA [XGTACX_site6875]	7.68 ± 0.26
TGATGATATAAAAACACACACATATAATATAATACT [CACACA_site1208]	7.81 ± 0.52
TTTAAAAACAAATATTGTACAAATTAAAATATATCA [XGTACX_site7220]	7.67 ± 0.47
